From the supplement of paper PMC10338343
± gives the standard deviation. Whole data set: some 6,600 sequences, median “pre-steady-state target cleavage rate” near 0.07, cut for the highest 2% near 0.72. The entries are a selection whose mix differs from that of the whole data set.

tested on: MIWI (PIWIL1) piRISC loaded with Kctd7 piRNA (30 nt); assay: pre-steady-state target cleavage rate (min^-1); MIWI and MILI are mouse PIWI proteins and EfPiwi is from a freshwater sponge; tags in brackets are library labels; higher = faster piRNA-guided slicing of the target; settings: guide: Kctd7 piRNA 5'p-UGUUAAUCUCUCAGAGAAGGUGACAGUGAU; auxiliary factor: 500 nM mouse GTSF1
Procedure: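 Cleave-'n-Seq: a library of target RNAs (target site embedded in constant flanks, ACAGCATTCCGCGTTAGTGATATCCG... 5' flank; DNA-blocked outside the site) at 0.1 nM was incubated with 1 nM active mouse MILI or MIWI piRISC (synthetic 5'-monophosphorylated piRNA guide) with or without 500 nM mouse GTSF1 at 33 °C for 1 min to 16 h. Uncleaved targets were sequenced and normalised to non-target controls, and the pooled three trials were fitted to a burst-and-steady-state model to give the pre-steady-state cleavage rate (min^-1; k3 is constrained to at most 1e-4). Sequence is the target site only; target names encode pairing extent (gX:gY) and contiguous / 1-mismatch / 2-mismatch / bulge geometry. Fits with R² ≤ 0 are excluded.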

Sequence	pre-steady-state target cleavage rate
UAGUCUGUCACGUUCUCUGAGAGAUUAUCA	0.176 ± 0.023
AUCAGUGUCACCAUCUCUGAGAGAUUAACA	0.715 ± 0.038
UAGUGACUCACGUUCUCUGAGAGAUUAUGA	0.00614 ± 0.003
UAGUGAGUCACCUUCACUGAGAGAAUAACA	0.0606 ± 0.0099
AUCACUGUCAGCUUCUCAGAGAGAUUAACA	0.294 ± 0.021
UAGUGUCUCACGUUCUCUGAGAGAUUAACA	0.485 ± 0.03
UAGACUGUCUCCUUCUCUGAGAGUUUAACA	0.303 ± 0.055
UUCACUGUGACCUUCUCUGAGAGAUUAAGA	0.141 ± 0.02
UACACAGUCACCUUCUCUGAGAGAAUAACA	0.417 ± 0.073
UAGACUGUGCACCUUCUCUGAGAGAUUAACA	0.651 ± 0.048
UAGUGACAGACCUUCUCUGAAAGAUUAACA	0.153 ± 0.013
UAGUGACUCACGUUCUCUGAGAGAAUAACA	0.0347 ± 0.0089
AUCACUGUCACCUACACUGAGAGAUUAACA	0.426 ± 0.028
UUCACUGUCACCUUCUGCUGAGAGAUUAACA	0.216 ± 0.069
UAGUGACUCACCUUCUGUGAGAGAUUUACA	0.0961 ± 0.013
UAGUCUGUCACCUUGUCUGAGAGAUAUUGA	0.0161 ± 0.0071
UAGUGACACAACUUCUCUGAGAGAUUAACA	0.0826 ± 0.011
UAGUGUGAGUCCUUCUCUGAGAGAUUAUGA	0.00956 ± 0.0032
UACAGUCUCACCUUCUCUGAGAGAUUAACA	0.661 ± 0.027
UUCACUCUCACCUUCUCUGAGAGAUUAUCA	0.0915 ± 0.019

Sequence	pre-steady-state target cleavage rate
UAGUGAGUCACCUUCUCAGAGAGAUAAACA	0.139 ± 0.014
UAGUGACUUACCUUCUCUGAGAGAUUAACA	0.223 ± 0.015
UAGACUGUCAGGUUCUCUGAGAGAUUAACA	0.518 ± 0.042
UACACUGUCACCUUCUCUGAGACAUUAAGA	0.0144 ± 0.0049
UAGUGACUCACCUGCUCUGAGAGAUUAACA	0.275 ± 0.03
UAGUGACUCACCUUCACUGACAGAUUAACA	0.148 ± 0.015
UACACUGUCACCUUCUGUGAGAGAUAUUGA	0.0175 ± 0.0098
UACACUGUCACCUUCUCUGACAGAAUAACA	0.0237 ± 0.0069
UACACUGUCACCUUCUCAGAGAGAUUAACA	0.312 ± 0.03
UAGUGUGUCUCCUUCUGUGAGAGAUUAACA	0.345 ± 0.022
UACACUGUCACGUUCUCUGAGUGAUUAACA	0.0124 ± 0.0029
UAGUCUGUCACCAUCUCUGAGUGAUUAACA	0.0218 ± 0.0034
UAGUCUGUCACCUUGUCAGAGAGAUUAACA	0.0834 ± 0.0086
UAGUCUGUCACCUUCUCUGAGAGAUUAACG [g2:g26:cont:t1G]	0.414 ± 0.025
UACACUGUCACCAUCUCUGAGAGAUUAACA	0.532 ± 0.044
AUCACUGUCACCUUCUGUGAGAGAUUUACA	0.229 ± 0.028
UAGUGACAGACCUUCUCUGAGAAAUUAACA	0.0268 ± 0.0065
UAGUGACAGUGCUUCACUGAGAGAUUAACA	0.00805 ± 0.0033
UUCACUGUCACCUUCUCUGUCAGAUUUUGA	0.0217 ± 0.0082
